For 31 compounds, normalised cell viability results are on record in the supplement of paper PMC6609913.

The subject of the test is V-C8 + BRCA2 (BRCA2-proficient hamster cells). Kind of test: normalised cell viability (fraction of plate median); higher = more viable cells (less toxic). Conditions: 5 µM. The procedure, abridged: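 Library drugs, held as 10 mM stocks in DMSO, were diluted to 5 μM in 100 μl medium and added to 96-well plates of V-C8 hamster cells, either lacking BRCA2 or with BRCA2 restored, 24 h after seeding. Plates ran for 3 days (screen 1) or 6 days (screen 2), alongside solvent-only wells. Viability came from a resazurin readout, median-plate normalised, as the mean of triplicate wells.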

Structures can show the parent of a compound that is named as a salt. ± gives the standard deviation of the averaged measurements. In all, about 1,300 compounds were measured (“normalised cell viability”: median about 1, lowest 2% from about 0.15 on). Some of the results follow.

Regarding `CC(NC(C)(C)C)C(=O)c1cccc(Cl)c1` (configuration not stated) [Bupropion hydrochloride], the normalised cell viability was 0.988 ± 0.031 (treatment time: 3 days) and 0.988 ± 0.078 (treatment time: 6 days).

With `c1ccc2c(c1)Nc1ccccc1S2` [Phenothiazine], the normalised cell viability was determined as 0.989 ± 0.017 (treatment time: 3 days) and 1.07 ± 0.058 (treatment time: 6 days).

As for `O=c1c2ccccc2[se]n1-c1ccccc1` [Ebselen], the normalised cell viability is, setting by setting: (treatment time: 3 days) 1.12 ± 0.036; (treatment time: 6 days) 1.05 ± 0.14.

With `CC(=O)O[C@H]1C[C@@H]2CC[C@@H]3[C@H](CC[C@@]4(C)[C@H]3C[C@H]([N+]3(C)CCCCC3)[C@@H]4OC(C)=O)[C@@]2(C)C[C@@H]1[N+]1(C)CCCCC1` [Pancuronium bromide], the normalised cell viability is, setting by setting: (treatment time: 3 days) 1.02 ± 0.037; (treatment time: 6 days) 1.06 ± 0.063.

Take `C=CCN1CC[C@]23c4c5ccc(O)c4O[C@H]2C(=O)CC[C@@]3(O)[C@H]1C5` [Naloxone hydrochloride]: the normalised cell viability (treatment time: 3 days) was found to be 1.06 ± 0.028 and the normalised cell viability (treatment time: 6 days) was 1.07 ± 0.066.

For the compound `COP(=O)(OC)C(O)C(Cl)(Cl)Cl` (configuration not stated) [Trichlorfon], the normalised cell viability runs as follows: (treatment time: 3 days) 1.01 ± 0.014; (treatment time: 6 days) 0.968 ± 0.025.

Turning to `C[C@]12C[C@H]3S[C@H]3C[C@@H]1CC[C@@H]1[C@@H]2CC[C@]2(C)[C@@H](O)CC[C@@H]12` [Epitiostanol], the normalised cell viability is, setting by setting: (treatment time: 3 days) 1.02 ± 0.019; (treatment time: 6 days) 1.05 ± 0.022.

Consider `CCCC(C)C1(CC)C(=O)NC(=O)NC1=O` (configuration not stated) [Pentobarbital], for which the normalised cell viability runs as follows: (treatment time: 3 days) 0.905 ± 0.023; (treatment time: 6 days) 0.954 ± 0.028.

`C[C@]12CCC(=O)C=C1C=C[C@@H]1[C@@H]2CC[C@@]2(C)[C@H]1CC[C@@]2(O)CCC(=O)O` [Canrenoic acid potassium salt]: the normalised cell viability runs as follows: (treatment time: 3 days) 1.06 ± 0.059; (treatment time: 6 days) 1.06 ± 0.022.

With `C(#CCN1CCCC1)CN1CCCC1` [Tremorine dihydrochloride], the normalised cell viability was determined as 1.14 ± 0.045 (treatment time: 3 days) and 1.09 ± 0.1 (treatment time: 6 days).

`CC(C)c1cccc(C(C)C)c1O` [Propofol]: the normalised cell viability was 1.01 ± 0.042 (treatment time: 3 days) and 1.07 ± 0.044 (treatment time: 6 days).

As to `C[C@]12CC[C@H](O)C[C@H]1CC[C@@H]1[C@@H]2CC[C@]2(C)[C@@H](C3=CC(=O)OC3)CC[C@]12O` [Digitoxigenin], the normalised cell viability by setting is: (treatment time: 3 days) 1.06 ± 0.021; (treatment time: 6 days) 1.06 ± 0.018.

In the case of `Oc1ccc2c3c1O[C@H]1[C@@H](O)CC[C@@]4(O)[C@@H](C2)N(CC2CCC2)CC[C@]314` [Nalbuphine hydrochloride], the normalised cell viability (treatment time: 3 days) came out at 1.19 ± 0.029 and the normalised cell viability (treatment time: 6 days) was determined as 1.09 ± 0.052.

On to `CC(=O)O[C@H]1CC[C@@]2(C)C(=CC[C@@H]3[C@@H]2CC[C@]2(C)C(=O)CC[C@@H]32)C1` [Dehydroisoandosterone 3-acetate], for which the normalised cell viability (treatment time: 3 days) was 1.02 ± 0.014 and the normalised cell viability (treatment time: 6 days) is 1 ± 0.12.

As to `O=C(NCNC(=O)NC1C(=O)NC(=O)N1CO)NC1C(=O)NC(=O)N1CO` (configuration not stated) [Imidurea], the normalised cell viability runs as follows: (treatment time: 3 days) 1.02 ± 0.062; (treatment time: 6 days) 1.05 ± 0.056.

Consider `CN1C[C@H](CNC(=O)OCc2ccccc2)C[C@@H]2c3cccc4c3c(cn4C)C[C@H]21` [Metergoline], for which the normalised cell viability worked out at 0.166 ± 0.008 (treatment time: 3 days) and 0.213 ± 0.038 (treatment time: 6 days).

`COc1cc2c(c(OC)c1OC)-c1ccc(OC)c(=O)cc1[C@@H](NC(C)=O)CC2` [Colchicine]: the normalised cell viability runs as follows: (treatment time: 3 days) 0.158 ± 0.0081; (treatment time: 6 days) 0.16 ± 0.003.

Consider `CC[N+]1(C)CCCC(OC(=O)C(O)(c2ccccc2)c2ccccc2)C1` (configuration not stated) [Pipenzolate bromide], for which the normalised cell viability by setting is: (treatment time: 3 days) 1.09 ± 0.049; (treatment time: 6 days) 1.06 ± 0.013.

For the compound `c1ccc2c(c1)OCC(C1=NCCN1)O2` (configuration not stated) [Idazoxan hydrochloride], the normalised cell viability (treatment time: 3 days) amounted to 0.916 ± 0.026 and the normalised cell viability (treatment time: 6 days) is 0.966 ± 0.046.

For `CCCCCC[C@H]1C(=O)O[C@H](C)[C@H](NC(=O)c2cccc(NC=O)c2O)C(=O)O[C@@H](C)[C@@H]1OC(=O)CC(C)C` [Antimycin A], the normalised cell viability by setting is: (treatment time: 3 days) 0.148 ± 0.012; (treatment time: 6 days) 0.124 ± 0.011.

As to `Cc1cc(C(C#N)c2ccc(Cl)cc2)c(Cl)cc1NC(=O)c1cc(I)cc(I)c1O` (configuration not stated) [Closantel], the normalised cell viability is, setting by setting: (treatment time: 3 days) 0.927 ± 0.065; (treatment time: 6 days) 0.823 ± 0.11.

Consider `C[C@@H]1C[C@@H]([C@H](O)CC2CC(=O)NC(=O)C2)C(=O)[C@@H](C)C1` [Cycloheximide], for which the normalised cell viability amounted to 0.146 ± 0.008 (treatment time: 3 days) and 0.138 ± 0.016 (treatment time: 6 days).

For the compound `CC[C@@H](CO)NC(=O)[C@@H]1C=C2c3cccc4[nH]cc(c34)C[C@H]2N(C)C1` [Methylergometrine maleate], the normalised cell viability (treatment time: 3 days) was found to be 1.05 ± 0.044 and the normalised cell viability (treatment time: 6 days) worked out at 1.05 ± 0.047.

For `O=c1[nH]oc2c1CCNC2` [THIP Hydrochloride], the normalised cell viability runs as follows: (treatment time: 3 days) 0.981 ± 0.024; (treatment time: 6 days) 1 ± 0.023.

As for `CC(N)C(O)c1ccccc1` (configuration not stated) [Phenylpropanolamine hydrochloride], the normalised cell viability reads like this: (treatment time: 3 days) 0.938 ± 0.032; (treatment time: 6 days) 1.1 ± 0.023.

On to `O=C(CCCN1CCC2(CC1)C(=O)NCN2c1ccccc1)c1ccc(F)cc1` [Spiperone], for which the normalised cell viability by setting is: (treatment time: 3 days) 1.07 ± 0.04; (treatment time: 6 days) 0.997 ± 0.072.

On to `C=C1CC[C@@]2(O)[C@H]3Cc4ccc(O)c5c4[C@@]2(CCN3CC2CC2)[C@H]1O5` [Nalmefene hydrochloride], for which the normalised cell viability (treatment time: 3 days) was 1 ± 0.043 and the normalised cell viability (treatment time: 6 days) worked out at 1.07 ± 0.15.

For the compound `O=[N+]([O-])O[C@H]1CO[C@H]2[C@@H]1OC[C@H]2O[N+](=O)[O-]` [Isosorbide dinitrate], the normalised cell viability came out at 0.863 ± 0.11 (treatment time: 3 days) and 0.97 ± 0.053 (treatment time: 6 days).

For the compound `NCC1(CC(=O)O)CCCCC1` [Gabapentin], the normalised cell viability worked out at 0.964 ± 0.058 (treatment time: 3 days) and 1.2 ± 0.018 (treatment time: 6 days).

On to `CC(O)(CS(=O)(=O)c1ccc(F)cc1)C(=O)Nc1ccc(C#N)c(C(F)(F)F)c1` (configuration not stated) [Bicalutamide], for which the normalised cell viability worked out at 0.872 ± 0.096 (treatment time: 3 days) and 1.01 ± 0.022 (treatment time: 6 days).

`CCOC(=O)c1cncn1[C@H](C)c1ccccc1` [Etomidate]: the normalised cell viability was found to be 0.957 ± 0.053 (treatment time: 3 days) and 1.03 ± 0.077 (treatment time: 6 days).
